Laboratory results reported in article PMC4919914 (2016).

Target: tau T40 (Homo sapiens, UniProt P10636)
Experiment: solid-phase immunoassay

Chain of UniProt P10636 (P10636 2-758): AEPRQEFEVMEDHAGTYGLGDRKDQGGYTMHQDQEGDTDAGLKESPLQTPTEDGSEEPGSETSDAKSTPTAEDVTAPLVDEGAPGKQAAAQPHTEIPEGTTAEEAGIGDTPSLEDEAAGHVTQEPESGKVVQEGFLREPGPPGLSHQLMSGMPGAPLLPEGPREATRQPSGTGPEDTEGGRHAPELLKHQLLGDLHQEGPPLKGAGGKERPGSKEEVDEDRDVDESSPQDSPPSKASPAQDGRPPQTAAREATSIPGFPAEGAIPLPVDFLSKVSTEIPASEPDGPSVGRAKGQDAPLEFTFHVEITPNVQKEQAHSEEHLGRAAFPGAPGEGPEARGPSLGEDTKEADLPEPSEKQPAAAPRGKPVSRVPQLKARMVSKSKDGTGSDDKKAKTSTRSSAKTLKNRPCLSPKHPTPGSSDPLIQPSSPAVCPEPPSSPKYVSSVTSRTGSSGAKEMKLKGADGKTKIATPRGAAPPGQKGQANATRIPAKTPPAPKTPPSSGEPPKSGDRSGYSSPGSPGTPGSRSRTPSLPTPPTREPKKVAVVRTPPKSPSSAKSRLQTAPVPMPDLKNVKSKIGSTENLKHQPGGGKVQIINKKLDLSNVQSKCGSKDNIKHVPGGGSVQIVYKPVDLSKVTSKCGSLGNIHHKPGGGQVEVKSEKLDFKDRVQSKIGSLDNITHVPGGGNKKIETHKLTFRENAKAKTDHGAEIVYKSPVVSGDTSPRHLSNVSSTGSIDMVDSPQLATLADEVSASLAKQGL

| Binder | Kd [nM] |
| --- | --- |
| neonatal tau NT (protein) not shown | 8.1 |
| neonatal tau NTP (protein, hyperphosphorylated NT) not shown | 10.5 |
